Screen size: about 310,000 compounds; about 14,000 (4.5%) showed an effect of 50% or more. Effects have a minus sign here. The list shows a part of the results.
molecular target: human ether-à-go-go-related gene (hERG) potassium channel (human, UniProt Q12809); experiment: primary screen, population patch clamp on CHO cells stably expressing hERG
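Also: peak tail current of the secondary pulse compared with the same well before compound.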

human ether-à-go-go-related gene (hERG) potassium channel, sequence (Q12809 whole entry, looked up): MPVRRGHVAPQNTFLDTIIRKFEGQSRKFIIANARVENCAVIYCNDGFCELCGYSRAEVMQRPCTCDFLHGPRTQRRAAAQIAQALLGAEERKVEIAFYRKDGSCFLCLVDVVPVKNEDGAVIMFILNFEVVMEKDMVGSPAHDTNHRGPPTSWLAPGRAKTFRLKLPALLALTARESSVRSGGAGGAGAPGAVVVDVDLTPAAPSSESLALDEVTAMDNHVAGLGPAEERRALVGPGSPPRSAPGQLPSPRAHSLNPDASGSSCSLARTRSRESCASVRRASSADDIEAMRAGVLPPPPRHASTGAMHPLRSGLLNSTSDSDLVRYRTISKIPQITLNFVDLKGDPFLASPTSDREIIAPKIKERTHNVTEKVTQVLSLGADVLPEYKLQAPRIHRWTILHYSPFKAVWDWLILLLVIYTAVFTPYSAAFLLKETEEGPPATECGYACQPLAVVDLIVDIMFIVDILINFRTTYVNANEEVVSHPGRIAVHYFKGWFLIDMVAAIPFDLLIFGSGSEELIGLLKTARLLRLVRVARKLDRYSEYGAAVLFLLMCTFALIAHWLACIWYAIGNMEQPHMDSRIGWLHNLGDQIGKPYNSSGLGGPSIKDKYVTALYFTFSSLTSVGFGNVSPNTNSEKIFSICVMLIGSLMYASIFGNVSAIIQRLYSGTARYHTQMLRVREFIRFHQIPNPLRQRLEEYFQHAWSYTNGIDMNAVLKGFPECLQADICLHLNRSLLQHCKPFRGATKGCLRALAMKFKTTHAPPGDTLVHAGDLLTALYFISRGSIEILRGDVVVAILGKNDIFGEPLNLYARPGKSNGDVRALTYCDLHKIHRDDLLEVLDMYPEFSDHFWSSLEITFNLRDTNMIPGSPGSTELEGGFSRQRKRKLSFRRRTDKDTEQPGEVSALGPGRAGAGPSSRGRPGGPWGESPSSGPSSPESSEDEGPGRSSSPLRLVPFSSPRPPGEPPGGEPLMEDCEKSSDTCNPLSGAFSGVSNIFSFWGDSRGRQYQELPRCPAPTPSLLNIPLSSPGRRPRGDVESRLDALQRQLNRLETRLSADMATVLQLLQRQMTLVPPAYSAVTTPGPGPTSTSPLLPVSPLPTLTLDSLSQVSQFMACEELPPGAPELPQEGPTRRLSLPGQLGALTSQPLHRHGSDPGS

SMILES | hERG current change (%, negative = inhibition) at 10uM [%]
O=C(Nc1ccc(Cl)cc1)c1ccc2c(=O)n3c(nc2c1)CCCCC3 | -32.5
CC(Oc1cc2oc(=O)cc(-c3ccccc3)c2cc1Cl)C(=O)NCC1CCC(C(=O)O)CC1 (stereo not drawn) | -4.83
O=C(CCc1ccc(S(=O)(=O)NCc2ccccc2)cc1)NCC1CCCO1 (stereo not drawn) | 4.07
COC(=O)NCc1ccc(S(=O)(=O)N2CCOCC2)cc1 | 18.6
Cc1ccc(CN2CCN(Cc3ccc(-n4cccn4)cc3C)CC2CCO)cc1 (stereo not drawn) | -78.6
COc1ccc(NC(=O)CCSc2ccc3ccccc3n2)cc1 | -11.7
Cc1ccc(NC(=O)CC(NCC2CCCO2)C(=O)O)cc1C (stereo not drawn) | 23.3
O=C(NCc1ccccc1)C1CC(=O)N(c2ccc(OCC(=O)N3CCCC3)cc2)C1 (stereo not drawn) | -8.34
Cn1cc(CNC(=O)c2cc(-c3ccccc3)nc3ccc(Br)cc23)cn1 | 11.7
COc1ccc([N+](=O)[O-])cc1NC(=O)Cc1ccc(C)cc1 | 19.4
Cc1nc2nc(Cc3ccccc3)nn2c(C)c1Cl | -24.6
COc1ccccc1CN1CCCC(C(=O)c2ccccc2SC)C1 (stereo not drawn) | -71.1
Cc1[nH]c2ccccc2c1C(C[N+](=O)[O-])c1cccc(O)c1 (stereo not drawn) | 8.53
Cc1ccc(C2=Nn3c(COc4ccc(Cl)cc4)nnc3SC2CC(=O)O)cc1 (stereo not drawn) | 0.51
Nc1c(NCCCN2CCOCC2)c2ccccc2oc1=O | 3
Cc1cc(NC(=O)CN2C(=O)NC3(CCCCCC3)C2=O)no1 | 9.2
COc1ccc([C@H]2/C=C\CN(C(=O)CC(C)(C)C)[C@@H](C)C(=O)N2Cc2ccc(F)cc2)cc1 | -17.4
CCOc1ccc(N2CC(C(=O)Nc3nnc(Cc4ccc(OC)cc4)s3)CC2=O)cc1 (stereo not drawn) | -19.2
COc1cc2c(C#CCCO)c(-c3ccc(C#N)cc3)oc(=O)c2cc1OC | -30.4
CCOc1ccc(NC(=S)Nc2ccc(OCc3ccccc3)cc2)cc1 | 4.64
O=C(c1cc(S(=O)(=O)N2CCC3(CC2)OCCO3)ccc1F)N1CCC2(CC1)OCCO2 | -10.5
O=S(=O)(c1cccc(-c2csc(N/N=C/c3ccco3)n2)c1)N1CCOCC1 | 1.03
O=c1[nH]c(-c2ccccc2)c(-c2ccccc2)[nH]1 | 13.3
Cc1ccc(NC(=O)CSC2=C(C#N)C(c3ccc4c(c3)OCO4)C3=C(CCCC3=O)N2)c(C)c1 (stereo not drawn) | -23.4
CCc1ccc(N2C(=O)NC(=O)C(CCc3ccncc3)(CCc3ccncc3)C2=O)cc1 | -69.9
COc1cccc(C2CC(c3cccs3)=NN2C(=O)CSc2nc3ccccc3o2)c1OC (stereo not drawn) | 3.09
COc1ccc(-c2nc(Cn3c(SCc4ccccc4F)nc4ccncc43)c(C)o2)cc1 | 4.5

SMILES | hERG current change (%, negative = inhibition) at 10uM [%]
CC(C)c1ccc(NC2CCCN(C(=O)c3ccc4nccnc4c3)C2)cc1 (stereo not drawn) | 4.68
CC(C)(CN1CCCC1)NS(=O)(=O)c1ccc(Cl)cc1 | 29.6
COC(=O)c1sc(S(=O)(=O)N2CCC(C(=O)O)CC2)c(C(=O)OC)c1C | 3.11
CCOC(=O)Cc1[nH]nc2c1C(c1ccsc1)C(C#N)=C(N)O2 (stereo not drawn) | 12.9
O=C(CSc1nnc(CNC(=O)c2ccccc2F)o1)NC1CCCCC1 | 15.8
Cn1c(CCC(=O)O)nc2cc(S(=O)(=O)N3CCCCC3)ccc21 | 4.66
CCn1nc(C(=O)O)c(=O)c2cc3c(cc21)OCO3 | 13.1
O=c1c2ccccc2[se]n1-c1ccccc1 | 27.7
O=C(c1c(F)cccc1F)N1CCCC(c2nc(-c3ccc(Cl)cc3)no2)C1 (stereo not drawn) | -15.7
O=C(CNC(=O)c1ccc(F)cc1)N/N=C/c1cn[nH]c1-c1ccccc1 | -18.1
Cl.O=C(COc1ccc(Cl)cc1Cl)NCCCn1ccnc1 | -38.6
COCCn1c(Cc2ccccc2)nnc1SCc1nc2ccccc2c(=O)[nH]1 | -1.05
O=C(O)/C=C/C(=O)Nc1c(F)cccc1F | 9
Cl.Cn1c(C(=O)N2CCN(Cc3ccc4c(c3)OCO4)CC2)cc2sccc21 | -8.46
Cc1ccccc1C(=O)Nc1ccc(C(=O)NNC(=O)CCCOc2ccc(Cl)cc2Cl)cc1 | 15.8
O=C(Nc1ccccc1)c1ccc2c(c1)OCCO2 | 13.5
COc1ccc(C(C(=O)NC2CCCC2)N(C(=O)c2snc(-c3ccc(F)cc3)c2N)c2ccccc2)cc1 (stereo not drawn) | -7.86
Cc1c(NS(=O)(=O)c2cc(C(=O)NCCN(C)C)ccc2Cl)c(=O)n(-c2ccccc2)n1C.Cl | 16.9
COc1ccc(C2C(C(=O)Nc3ccc(F)cc3)=C(C)Nc3nc(CCCO)nn32)cc1 (stereo not drawn) | 18.3
COc1ccc(CCNC(=O)C2CC2)cc1 | 0.64
CC1=CC(C)[C@@H]2COC(c3ccc(O)cc3)[C@H]1C2C (stereo partly drawn) | 4.96
CC(C)N1CCc2c(sc(NC(=O)CCS(=O)(=O)c3ccccc3)c2C#N)C1.Cl | -9.63
CCC(=O)Nc1ccc(Nc2ccccc2)cc1 | 1.15
CCOP(=O)(OCC)/C(C#N)=C/c1ccoc1 | 1.07
CCC1=C2CC[C@H]3C(=O)N(CC)C(=O)[C@H]3[C@H]2[C@@]2(Cc3ccccc3)C(=O)N(Cc3ccccc3)C(=O)N2C1=O | -4.26
CCC(C)(C)c1ccc(OC(=O)c2cccnc2Cl)cc1 | -0.975
CC(=O)c1cccc(NC(=O)NC(C)c2ccc3c(c2)OCO3)c1 (stereo not drawn) | 24

From PMC4336329 (PLoS ONE, 2015)
